# The other results are listed elsewhere or left out. Cleavage of a single-stranded DNA pool by Rep nickase domains was read by sequencing for 1 h at 37 °C with 3 µM enzyme; only the middle of the 90-letter strands is printed. A value is the log2 ratio of uncut reads to the pool without enzyme; uncut sequences lie near 0, cut ones below; no hit call is given. Because reads are shares of a total, they shift together; uncut strands gain when others are lost, and binding without cutting may add a little.
# Legend:
# Experiment in all cases: uncleaved DNA left, log2 of reads against the no-enzyme library (log2 ratio); higher = less cleavage (more negative = more Rep cleavage of the k-mer); sequences stand for … in CTCGTCCG…ACCGGAGA
# [1] = test system: T1, Rep nickase domain of Muscovy duck circovirus
# T1 sequence (residues 1-111, tag not shown): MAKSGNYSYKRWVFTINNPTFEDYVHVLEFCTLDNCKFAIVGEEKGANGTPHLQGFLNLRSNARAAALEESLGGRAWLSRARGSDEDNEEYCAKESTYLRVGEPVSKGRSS
# Method: (§1)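 A pool of 90-nt single-stranded DNAs with seven random bases just before the constant AC of the nick site (name = the seven bases) was cut by 3 µM recombinant His6-SUMO-tagged Rep nickase domain (300 nM DNA, 50 mM HEPES pH 8.0, 50 mM NaCl, 1 mM MnCl2, 1 h, 37 °C, three replicates). Uncut DNA was amplified and sequenced.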
# [2] = test system: T2, Rep nickase domain of banana bunchy top virus
# T2 sequence (residues 1-94, tag not shown): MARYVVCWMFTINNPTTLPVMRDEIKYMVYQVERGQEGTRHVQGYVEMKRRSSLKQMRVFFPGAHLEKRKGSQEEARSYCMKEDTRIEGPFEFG
# Method: as §1
# [3] = test system: T3, Rep nickase domain of cabbage leaf curl virus
# T3 sequence (residues 1-116, tag not shown): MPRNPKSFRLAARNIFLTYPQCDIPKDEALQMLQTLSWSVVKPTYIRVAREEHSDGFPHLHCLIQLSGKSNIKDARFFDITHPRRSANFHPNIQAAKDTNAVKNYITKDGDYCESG
# Method: as §1
# [4] = test system: T4, Rep nickase domain of chickpea chlorotic dwarf virus
# T4 sequence (residues 1-124, tag not shown): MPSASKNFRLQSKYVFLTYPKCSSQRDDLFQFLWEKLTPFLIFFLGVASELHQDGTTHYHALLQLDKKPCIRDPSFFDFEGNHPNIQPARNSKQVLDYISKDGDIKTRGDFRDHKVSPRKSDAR
# Method: as §1
# [5] = test system: T5, Rep nickase domain of faba bean necrotic yellows virus
# T5 sequence (residues 1-98, tag not shown): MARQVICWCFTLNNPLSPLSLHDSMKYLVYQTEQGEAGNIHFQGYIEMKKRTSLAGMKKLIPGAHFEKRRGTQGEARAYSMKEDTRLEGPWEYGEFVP
# Method: as §1
# [6] = test system: T6, Rep nickase domain of maize striate mosaic virus
# T6 sequence (residues 1-117, tag not shown): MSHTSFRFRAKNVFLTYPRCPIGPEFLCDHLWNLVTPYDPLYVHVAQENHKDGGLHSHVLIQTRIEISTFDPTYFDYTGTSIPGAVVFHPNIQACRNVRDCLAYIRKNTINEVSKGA
# Method: as §1
# [7] = test system: T7, Rep nickase domain of porcine circovirus 2
# T7 sequence (residues 2-116, tag not shown): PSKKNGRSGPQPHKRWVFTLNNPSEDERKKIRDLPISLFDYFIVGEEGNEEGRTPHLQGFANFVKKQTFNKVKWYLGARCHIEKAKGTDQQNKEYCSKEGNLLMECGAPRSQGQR
# Method: as §1
# [8] = test system: T8, Rep nickase domain of tomato golden mosaic virus
# T8 sequence (residues 1-124, tag not shown): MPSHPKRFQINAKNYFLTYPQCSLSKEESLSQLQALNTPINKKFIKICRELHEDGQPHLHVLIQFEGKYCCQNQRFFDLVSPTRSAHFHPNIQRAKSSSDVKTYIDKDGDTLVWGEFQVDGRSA
# Method: as §1
# [9] = test system: T9, Rep nickase domain of tomato yellow leaf curl virus
# T9 sequence (residues 1-136, tag not shown): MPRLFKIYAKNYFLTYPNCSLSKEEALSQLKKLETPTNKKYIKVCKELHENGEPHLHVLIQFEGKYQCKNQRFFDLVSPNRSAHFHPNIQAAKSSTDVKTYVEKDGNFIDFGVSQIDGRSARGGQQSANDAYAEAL
# Method: as §1
# [10] = test system: T10, Rep nickase domain of wheat dwarf virus
# T10 sequence (residues 1-137, tag not shown): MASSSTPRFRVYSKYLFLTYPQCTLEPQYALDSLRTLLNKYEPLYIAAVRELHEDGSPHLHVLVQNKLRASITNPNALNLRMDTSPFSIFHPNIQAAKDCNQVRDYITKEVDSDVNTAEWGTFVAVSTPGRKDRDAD
# Method: as §1
sequence,measurement,setting,value
TTAGCCC,uncleaved DNA left (log2),[1],-0.0465
same,uncleaved DNA left (log2),[2],-0.163
same,uncleaved DNA left (log2),[3],0.019
same,uncleaved DNA left (log2),[4],-0.425
same,uncleaved DNA left (log2),[5],-0.0613
same,uncleaved DNA left (log2),[6],-0.558
same,uncleaved DNA left (log2),[7],-0.154
same,uncleaved DNA left (log2),[8],-0.0657
same,uncleaved DNA left (log2),[9],-0.108
same,uncleaved DNA left (log2),[10],-0.152
GGAGAAG,uncleaved DNA left (log2),[1],0.0818
same,uncleaved DNA left (log2),[2],-0.0585
same,uncleaved DNA left (log2),[3],0.252
same,uncleaved DNA left (log2),[4],0.8
same,uncleaved DNA left (log2),[5],-0.0655
same,uncleaved DNA left (log2),[6],0.287
same,uncleaved DNA left (log2),[7],0.0773
same,uncleaved DNA left (log2),[8],0.0108
same,uncleaved DNA left (log2),[9],-0.0338
same,uncleaved DNA left (log2),[10],0.00841
CTAGAGC,uncleaved DNA left (log2),[1],-0.0785
same,uncleaved DNA left (log2),[2],0.0699
same,uncleaved DNA left (log2),[3],-0.314
same,uncleaved DNA left (log2),[4],-0.165
same,uncleaved DNA left (log2),[5],-0.00651
same,uncleaved DNA left (log2),[6],-0.888
same,uncleaved DNA left (log2),[7],0.107
same,uncleaved DNA left (log2),[8],-0.0436
same,uncleaved DNA left (log2),[9],0.125
same,uncleaved DNA left (log2),[10],-0.0668
AGATCAC,uncleaved DNA left (log2),[1],-0.0161
same,uncleaved DNA left (log2),[2],0.0852
same,uncleaved DNA left (log2),[3],0.239
same,uncleaved DNA left (log2),[4],0.243
same,uncleaved DNA left (log2),[5],0.00998
same,uncleaved DNA left (log2),[6],0.177
same,uncleaved DNA left (log2),[7],0.157
same,uncleaved DNA left (log2),[8],-0.083
same,uncleaved DNA left (log2),[9],0.158
same,uncleaved DNA left (log2),[10],0.119
GGACAAC,uncleaved DNA left (log2),[1],0.0782
same,uncleaved DNA left (log2),[2],0.183
same,uncleaved DNA left (log2),[3],0.92
same,uncleaved DNA left (log2),[4],1.98
same,uncleaved DNA left (log2),[5],0.0526
same,uncleaved DNA left (log2),[6],2.31
same,uncleaved DNA left (log2),[7],0.276
same,uncleaved DNA left (log2),[8],-0.0421
same,uncleaved DNA left (log2),[9],0.0937
same,uncleaved DNA left (log2),[10],0.146
CGACCTT,uncleaved DNA left (log2),[1],-0.0615
same,uncleaved DNA left (log2),[2],-0.0837
same,uncleaved DNA left (log2),[3],0.0829
same,uncleaved DNA left (log2),[4],-0.0538
same,uncleaved DNA left (log2),[5],0.0642
same,uncleaved DNA left (log2),[6],0.852
same,uncleaved DNA left (log2),[7],-0.102
same,uncleaved DNA left (log2),[8],-0.0257
same,uncleaved DNA left (log2),[9],0.0508
same,uncleaved DNA left (log2),[10],0.0414
GGTCGCT,uncleaved DNA left (log2),[1],-0.00495
same,uncleaved DNA left (log2),[2],0.0249
same,uncleaved DNA left (log2),[3],0.374
same,uncleaved DNA left (log2),[4],0.671
same,uncleaved DNA left (log2),[5],0.038
same,uncleaved DNA left (log2),[6],0.888
same,uncleaved DNA left (log2),[7],-0.0342
same,uncleaved DNA left (log2),[8],-0.0495
same,uncleaved DNA left (log2),[9],-0.0103
same,uncleaved DNA left (log2),[10],0.0766
TAATAGG,uncleaved DNA left (log2),[1],0.0815
same,uncleaved DNA left (log2),[2],0.0416
same,uncleaved DNA left (log2),[3],-0.0994
same,uncleaved DNA left (log2),[4],0.398
same,uncleaved DNA left (log2),[5],0.0379
same,uncleaved DNA left (log2),[6],0.939
same,uncleaved DNA left (log2),[7],0.12
same,uncleaved DNA left (log2),[8],0.0842
same,uncleaved DNA left (log2),[9],-0.1
same,uncleaved DNA left (log2),[10],0.0617
AGATAGC,uncleaved DNA left (log2),[1],0.113
same,uncleaved DNA left (log2),[2],0.0851
same,uncleaved DNA left (log2),[3],-0.215
same,uncleaved DNA left (log2),[4],-0.279
same,uncleaved DNA left (log2),[5],0.119
same,uncleaved DNA left (log2),[6],-0.976
same,uncleaved DNA left (log2),[7],0.192
same,uncleaved DNA left (log2),[8],0.101
same,uncleaved DNA left (log2),[9],0.142
same,uncleaved DNA left (log2),[10],0.0102
AGAAACC,uncleaved DNA left (log2),[1],0.00506
same,uncleaved DNA left (log2),[2],-0.0506
same,uncleaved DNA left (log2),[3],0.403
same,uncleaved DNA left (log2),[4],0.679
same,uncleaved DNA left (log2),[5],0.024
same,uncleaved DNA left (log2),[6],0.342
same,uncleaved DNA left (log2),[7],-0.227
same,uncleaved DNA left (log2),[8],0.0204
same,uncleaved DNA left (log2),[9],-0.059
same,uncleaved DNA left (log2),[10],0.0554
AATGACA,uncleaved DNA left (log2),[1],0.0415
same,uncleaved DNA left (log2),[2],0.0547
same,uncleaved DNA left (log2),[3],0.0592
same,uncleaved DNA left (log2),[4],0.0209
same,uncleaved DNA left (log2),[5],-0.0314
same,uncleaved DNA left (log2),[6],0.515
same,uncleaved DNA left (log2),[7],-0.025
same,uncleaved DNA left (log2),[8],0.0414
same,uncleaved DNA left (log2),[9],0.1
same,uncleaved DNA left (log2),[10],0.0862
TCAGCGG,uncleaved DNA left (log2),[1],0.0093
same,uncleaved DNA left (log2),[2],0.0382
same,uncleaved DNA left (log2),[3],0.308
same,uncleaved DNA left (log2),[4],0.849
same,uncleaved DNA left (log2),[5],0.078
same,uncleaved DNA left (log2),[6],0.807
same,uncleaved DNA left (log2),[7],0.11
same,uncleaved DNA left (log2),[8],0.152
same,uncleaved DNA left (log2),[9],-0.13
same,uncleaved DNA left (log2),[10],-0.00768
CCCTTGC,uncleaved DNA left (log2),[1],-0.178
same,uncleaved DNA left (log2),[2],-0.0254
same,uncleaved DNA left (log2),[3],-0.789
same,uncleaved DNA left (log2),[4],-0.454
same,uncleaved DNA left (log2),[5],-0.171
same,uncleaved DNA left (log2),[6],-1.03
same,uncleaved DNA left (log2),[7],-0.0858
same,uncleaved DNA left (log2),[8],-0.188
same,uncleaved DNA left (log2),[9],-0.0491
same,uncleaved DNA left (log2),[10],-0.114
CCTACGT,uncleaved DNA left (log2),[1],0.0199
same,uncleaved DNA left (log2),[2],-0.0218
same,uncleaved DNA left (log2),[3],0.197
same,uncleaved DNA left (log2),[4],-0.585
same,uncleaved DNA left (log2),[5],0.0882
same,uncleaved DNA left (log2),[6],-0.26
same,uncleaved DNA left (log2),[7],0.00302
same,uncleaved DNA left (log2),[8],-0.00728
same,uncleaved DNA left (log2),[9],-0.0295
same,uncleaved DNA left (log2),[10],-0.131
GGTGCGT,uncleaved DNA left (log2),[1],-0.0526
same,uncleaved DNA left (log2),[2],-0.12
same,uncleaved DNA left (log2),[3],-0.0825
same,uncleaved DNA left (log2),[4],0.577
same,uncleaved DNA left (log2),[5],-0.156
same,uncleaved DNA left (log2),[6],0.152
same,uncleaved DNA left (log2),[7],-0.0854
same,uncleaved DNA left (log2),[8],-0.122
same,uncleaved DNA left (log2),[9],-0.0596
same,uncleaved DNA left (log2),[10],-0.174
